Results published in PMC9314279.
These are yes or no findings as the source states them, for the method shown. For part of these data: Binding seen in cells or lysates may run through a third protein. Some binding calls cover weakened binding; strength is not graded here. For part of these data: Where a sequence is shown, tags or fusion partners need not be part of it. One block for each binder: values may come before it.

Assays:
[1] = target: Atp1a3 subunit of the retinal Na/K-ATPase (murine) (mouse (endogenous in murine retina)) (UniProt Q6PIC6); test: co-IP; murine retinal lysate (wildtype, P18) in 10 mM CHAPS in TBS; antibodies against Atp1a3, Kv2.1, Kv8.2 or Atp1a1 on Protein A Sepharose beads, overnight at 4 °C, five washes; anti-6*His-tag antibody as control; western blot
[2] = target: T1, Kv channel subunit Kv8.2 (murine) (mouse (endogenous in murine retina)) (UniProt Q8CFS6); test: as above
T1 sequence: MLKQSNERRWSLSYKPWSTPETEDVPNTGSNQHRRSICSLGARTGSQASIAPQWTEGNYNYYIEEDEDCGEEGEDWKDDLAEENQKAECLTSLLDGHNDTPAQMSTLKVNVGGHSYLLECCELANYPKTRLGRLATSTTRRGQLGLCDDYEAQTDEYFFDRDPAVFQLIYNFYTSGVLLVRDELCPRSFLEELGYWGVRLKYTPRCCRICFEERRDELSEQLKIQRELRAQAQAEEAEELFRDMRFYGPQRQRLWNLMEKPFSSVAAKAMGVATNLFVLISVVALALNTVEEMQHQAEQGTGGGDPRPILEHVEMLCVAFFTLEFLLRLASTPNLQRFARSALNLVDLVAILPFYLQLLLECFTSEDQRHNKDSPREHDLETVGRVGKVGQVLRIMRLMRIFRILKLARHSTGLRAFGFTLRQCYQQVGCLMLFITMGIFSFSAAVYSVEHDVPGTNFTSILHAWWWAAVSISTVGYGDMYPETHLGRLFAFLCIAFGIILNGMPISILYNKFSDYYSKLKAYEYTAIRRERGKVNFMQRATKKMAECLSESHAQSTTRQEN

[3] = target: T2, Kv2.1, heterologously expressed on Hek293 cells (human) (UniProt Q14721); test: retinoschisin binding to transfected Hek293 cells, western blot of cell pellets; supernatant of Hek293 cells stably secreting recombinant retinoschisin incubated for 1 h with transfected Hek293 cells; cell pellets blotted after intensive washing; cells with empty vector as negative control
T2 sequence: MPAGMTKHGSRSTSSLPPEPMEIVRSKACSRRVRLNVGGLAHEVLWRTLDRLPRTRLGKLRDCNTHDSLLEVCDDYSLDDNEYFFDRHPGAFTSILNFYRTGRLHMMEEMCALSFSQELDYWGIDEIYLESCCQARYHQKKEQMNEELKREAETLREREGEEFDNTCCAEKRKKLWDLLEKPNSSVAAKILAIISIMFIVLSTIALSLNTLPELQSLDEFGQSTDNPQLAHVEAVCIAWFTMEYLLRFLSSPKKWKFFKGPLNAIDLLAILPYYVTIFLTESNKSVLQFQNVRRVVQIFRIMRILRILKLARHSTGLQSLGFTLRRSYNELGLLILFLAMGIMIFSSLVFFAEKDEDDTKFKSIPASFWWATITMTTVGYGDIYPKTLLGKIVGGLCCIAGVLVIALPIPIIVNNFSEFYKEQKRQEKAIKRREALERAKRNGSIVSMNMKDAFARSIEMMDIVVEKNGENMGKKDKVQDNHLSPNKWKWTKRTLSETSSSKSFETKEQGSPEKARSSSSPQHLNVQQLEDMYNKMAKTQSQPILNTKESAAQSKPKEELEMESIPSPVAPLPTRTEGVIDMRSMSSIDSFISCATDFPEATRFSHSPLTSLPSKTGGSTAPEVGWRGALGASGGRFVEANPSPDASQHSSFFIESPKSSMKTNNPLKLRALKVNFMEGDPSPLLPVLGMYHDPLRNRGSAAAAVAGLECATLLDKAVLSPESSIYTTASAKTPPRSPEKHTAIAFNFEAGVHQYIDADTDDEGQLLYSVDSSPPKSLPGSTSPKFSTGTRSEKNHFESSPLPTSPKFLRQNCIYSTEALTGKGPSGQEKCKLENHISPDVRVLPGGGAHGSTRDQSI

[4] = target: retinal Na/K-ATPase (ATP1A3/ATP1B2), heterologously expressed on Hek293 cells (human) (UniProt P13637+P14415); test: as above
[5] = target: T3, Kv2.1 plus Kv8.2, heterologously co-expressed in Hek293 cells (human) (UniProt Q14721+Q8TDN2); test: as above
T3 sequence 1: T2 sequence
T3 sequence 2: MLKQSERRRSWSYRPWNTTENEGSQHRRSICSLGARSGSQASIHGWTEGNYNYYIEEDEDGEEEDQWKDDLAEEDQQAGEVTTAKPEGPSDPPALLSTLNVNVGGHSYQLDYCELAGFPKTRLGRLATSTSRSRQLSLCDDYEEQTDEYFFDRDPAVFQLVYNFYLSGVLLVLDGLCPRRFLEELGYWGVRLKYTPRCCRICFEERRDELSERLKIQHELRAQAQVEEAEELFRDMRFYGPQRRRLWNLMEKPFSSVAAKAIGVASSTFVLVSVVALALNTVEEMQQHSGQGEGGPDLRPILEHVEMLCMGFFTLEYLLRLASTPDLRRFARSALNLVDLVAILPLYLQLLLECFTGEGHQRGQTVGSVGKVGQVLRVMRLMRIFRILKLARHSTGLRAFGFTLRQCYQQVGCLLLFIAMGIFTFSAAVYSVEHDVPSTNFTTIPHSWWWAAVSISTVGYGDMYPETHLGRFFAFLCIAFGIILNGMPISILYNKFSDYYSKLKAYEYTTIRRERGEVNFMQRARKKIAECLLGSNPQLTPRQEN

binding [1]: binds | binding [2]: binds
B1: Atp1b2 subunit of the retinal Na/K-ATPase (murine) (protein, UniProt P14231 1-290)
chain: MVIQKEKKSCGQVVEEWKEFVWNPRTHQFMGRTGTSWAFILLFYLVFYGFLTAMFSLTMWVMLQTVSDHTPKYQDRLATPGLMIRPKTENLDVIVNISDTESWGQHVQKLNKFLEPYNDSIQAQKNDVCRPGRYYEQPDNGVLNYPKRACQFNRTQLGDCSGIGDPTHYGYSTGQPCVFIKMNRVINFYAGANQSMNVTCVGKRDEDAENLGHFVMFPANGSIDLMYFPYYGKKFHVNYTQPLVAVKFLNVTPNVEVNVECRINAANIATDDERDKFAGRVAFKLRINKT

binding [3]: no binding | binding [4]: binds | binding [5]: no binding
B2: recombinant retinoschisin (human) (protein, UniProt O15537 24-224)
chain: STEDEGEDPWYQKACKCDCQGGPNALWSAGATSLDCIPECPYHKPLGFESGEVTPDQITCSNPEQYVGWYSSWTANKARLNSQGFGCAWLSKFQDSSQWLQIDLKEIKVISGILTQGRCDIDEWMTKYSVQYRTDERLNWIYYKDQTGNNRVFYGNSDRTSTVQNLLRPPIISRFIRLIPLGWHVRIAIRMELLECVSKCA

binding [1]: binds
B3: Kv channel subunit Kv8.2 (murine) (protein, UniProt Q8CFS6 1-562)
chain: T1 sequence
